Biological target: LRP on mouse embryonic fibroblast (MEF) cells (mouse) (UniProt Q91ZX7)
Assay: cell-based or functional assay
Settings: scale: % of the corresponding amounts of 125I-fVIII

UniProt Q91ZX7, sequence (Q91ZX7 20-4545): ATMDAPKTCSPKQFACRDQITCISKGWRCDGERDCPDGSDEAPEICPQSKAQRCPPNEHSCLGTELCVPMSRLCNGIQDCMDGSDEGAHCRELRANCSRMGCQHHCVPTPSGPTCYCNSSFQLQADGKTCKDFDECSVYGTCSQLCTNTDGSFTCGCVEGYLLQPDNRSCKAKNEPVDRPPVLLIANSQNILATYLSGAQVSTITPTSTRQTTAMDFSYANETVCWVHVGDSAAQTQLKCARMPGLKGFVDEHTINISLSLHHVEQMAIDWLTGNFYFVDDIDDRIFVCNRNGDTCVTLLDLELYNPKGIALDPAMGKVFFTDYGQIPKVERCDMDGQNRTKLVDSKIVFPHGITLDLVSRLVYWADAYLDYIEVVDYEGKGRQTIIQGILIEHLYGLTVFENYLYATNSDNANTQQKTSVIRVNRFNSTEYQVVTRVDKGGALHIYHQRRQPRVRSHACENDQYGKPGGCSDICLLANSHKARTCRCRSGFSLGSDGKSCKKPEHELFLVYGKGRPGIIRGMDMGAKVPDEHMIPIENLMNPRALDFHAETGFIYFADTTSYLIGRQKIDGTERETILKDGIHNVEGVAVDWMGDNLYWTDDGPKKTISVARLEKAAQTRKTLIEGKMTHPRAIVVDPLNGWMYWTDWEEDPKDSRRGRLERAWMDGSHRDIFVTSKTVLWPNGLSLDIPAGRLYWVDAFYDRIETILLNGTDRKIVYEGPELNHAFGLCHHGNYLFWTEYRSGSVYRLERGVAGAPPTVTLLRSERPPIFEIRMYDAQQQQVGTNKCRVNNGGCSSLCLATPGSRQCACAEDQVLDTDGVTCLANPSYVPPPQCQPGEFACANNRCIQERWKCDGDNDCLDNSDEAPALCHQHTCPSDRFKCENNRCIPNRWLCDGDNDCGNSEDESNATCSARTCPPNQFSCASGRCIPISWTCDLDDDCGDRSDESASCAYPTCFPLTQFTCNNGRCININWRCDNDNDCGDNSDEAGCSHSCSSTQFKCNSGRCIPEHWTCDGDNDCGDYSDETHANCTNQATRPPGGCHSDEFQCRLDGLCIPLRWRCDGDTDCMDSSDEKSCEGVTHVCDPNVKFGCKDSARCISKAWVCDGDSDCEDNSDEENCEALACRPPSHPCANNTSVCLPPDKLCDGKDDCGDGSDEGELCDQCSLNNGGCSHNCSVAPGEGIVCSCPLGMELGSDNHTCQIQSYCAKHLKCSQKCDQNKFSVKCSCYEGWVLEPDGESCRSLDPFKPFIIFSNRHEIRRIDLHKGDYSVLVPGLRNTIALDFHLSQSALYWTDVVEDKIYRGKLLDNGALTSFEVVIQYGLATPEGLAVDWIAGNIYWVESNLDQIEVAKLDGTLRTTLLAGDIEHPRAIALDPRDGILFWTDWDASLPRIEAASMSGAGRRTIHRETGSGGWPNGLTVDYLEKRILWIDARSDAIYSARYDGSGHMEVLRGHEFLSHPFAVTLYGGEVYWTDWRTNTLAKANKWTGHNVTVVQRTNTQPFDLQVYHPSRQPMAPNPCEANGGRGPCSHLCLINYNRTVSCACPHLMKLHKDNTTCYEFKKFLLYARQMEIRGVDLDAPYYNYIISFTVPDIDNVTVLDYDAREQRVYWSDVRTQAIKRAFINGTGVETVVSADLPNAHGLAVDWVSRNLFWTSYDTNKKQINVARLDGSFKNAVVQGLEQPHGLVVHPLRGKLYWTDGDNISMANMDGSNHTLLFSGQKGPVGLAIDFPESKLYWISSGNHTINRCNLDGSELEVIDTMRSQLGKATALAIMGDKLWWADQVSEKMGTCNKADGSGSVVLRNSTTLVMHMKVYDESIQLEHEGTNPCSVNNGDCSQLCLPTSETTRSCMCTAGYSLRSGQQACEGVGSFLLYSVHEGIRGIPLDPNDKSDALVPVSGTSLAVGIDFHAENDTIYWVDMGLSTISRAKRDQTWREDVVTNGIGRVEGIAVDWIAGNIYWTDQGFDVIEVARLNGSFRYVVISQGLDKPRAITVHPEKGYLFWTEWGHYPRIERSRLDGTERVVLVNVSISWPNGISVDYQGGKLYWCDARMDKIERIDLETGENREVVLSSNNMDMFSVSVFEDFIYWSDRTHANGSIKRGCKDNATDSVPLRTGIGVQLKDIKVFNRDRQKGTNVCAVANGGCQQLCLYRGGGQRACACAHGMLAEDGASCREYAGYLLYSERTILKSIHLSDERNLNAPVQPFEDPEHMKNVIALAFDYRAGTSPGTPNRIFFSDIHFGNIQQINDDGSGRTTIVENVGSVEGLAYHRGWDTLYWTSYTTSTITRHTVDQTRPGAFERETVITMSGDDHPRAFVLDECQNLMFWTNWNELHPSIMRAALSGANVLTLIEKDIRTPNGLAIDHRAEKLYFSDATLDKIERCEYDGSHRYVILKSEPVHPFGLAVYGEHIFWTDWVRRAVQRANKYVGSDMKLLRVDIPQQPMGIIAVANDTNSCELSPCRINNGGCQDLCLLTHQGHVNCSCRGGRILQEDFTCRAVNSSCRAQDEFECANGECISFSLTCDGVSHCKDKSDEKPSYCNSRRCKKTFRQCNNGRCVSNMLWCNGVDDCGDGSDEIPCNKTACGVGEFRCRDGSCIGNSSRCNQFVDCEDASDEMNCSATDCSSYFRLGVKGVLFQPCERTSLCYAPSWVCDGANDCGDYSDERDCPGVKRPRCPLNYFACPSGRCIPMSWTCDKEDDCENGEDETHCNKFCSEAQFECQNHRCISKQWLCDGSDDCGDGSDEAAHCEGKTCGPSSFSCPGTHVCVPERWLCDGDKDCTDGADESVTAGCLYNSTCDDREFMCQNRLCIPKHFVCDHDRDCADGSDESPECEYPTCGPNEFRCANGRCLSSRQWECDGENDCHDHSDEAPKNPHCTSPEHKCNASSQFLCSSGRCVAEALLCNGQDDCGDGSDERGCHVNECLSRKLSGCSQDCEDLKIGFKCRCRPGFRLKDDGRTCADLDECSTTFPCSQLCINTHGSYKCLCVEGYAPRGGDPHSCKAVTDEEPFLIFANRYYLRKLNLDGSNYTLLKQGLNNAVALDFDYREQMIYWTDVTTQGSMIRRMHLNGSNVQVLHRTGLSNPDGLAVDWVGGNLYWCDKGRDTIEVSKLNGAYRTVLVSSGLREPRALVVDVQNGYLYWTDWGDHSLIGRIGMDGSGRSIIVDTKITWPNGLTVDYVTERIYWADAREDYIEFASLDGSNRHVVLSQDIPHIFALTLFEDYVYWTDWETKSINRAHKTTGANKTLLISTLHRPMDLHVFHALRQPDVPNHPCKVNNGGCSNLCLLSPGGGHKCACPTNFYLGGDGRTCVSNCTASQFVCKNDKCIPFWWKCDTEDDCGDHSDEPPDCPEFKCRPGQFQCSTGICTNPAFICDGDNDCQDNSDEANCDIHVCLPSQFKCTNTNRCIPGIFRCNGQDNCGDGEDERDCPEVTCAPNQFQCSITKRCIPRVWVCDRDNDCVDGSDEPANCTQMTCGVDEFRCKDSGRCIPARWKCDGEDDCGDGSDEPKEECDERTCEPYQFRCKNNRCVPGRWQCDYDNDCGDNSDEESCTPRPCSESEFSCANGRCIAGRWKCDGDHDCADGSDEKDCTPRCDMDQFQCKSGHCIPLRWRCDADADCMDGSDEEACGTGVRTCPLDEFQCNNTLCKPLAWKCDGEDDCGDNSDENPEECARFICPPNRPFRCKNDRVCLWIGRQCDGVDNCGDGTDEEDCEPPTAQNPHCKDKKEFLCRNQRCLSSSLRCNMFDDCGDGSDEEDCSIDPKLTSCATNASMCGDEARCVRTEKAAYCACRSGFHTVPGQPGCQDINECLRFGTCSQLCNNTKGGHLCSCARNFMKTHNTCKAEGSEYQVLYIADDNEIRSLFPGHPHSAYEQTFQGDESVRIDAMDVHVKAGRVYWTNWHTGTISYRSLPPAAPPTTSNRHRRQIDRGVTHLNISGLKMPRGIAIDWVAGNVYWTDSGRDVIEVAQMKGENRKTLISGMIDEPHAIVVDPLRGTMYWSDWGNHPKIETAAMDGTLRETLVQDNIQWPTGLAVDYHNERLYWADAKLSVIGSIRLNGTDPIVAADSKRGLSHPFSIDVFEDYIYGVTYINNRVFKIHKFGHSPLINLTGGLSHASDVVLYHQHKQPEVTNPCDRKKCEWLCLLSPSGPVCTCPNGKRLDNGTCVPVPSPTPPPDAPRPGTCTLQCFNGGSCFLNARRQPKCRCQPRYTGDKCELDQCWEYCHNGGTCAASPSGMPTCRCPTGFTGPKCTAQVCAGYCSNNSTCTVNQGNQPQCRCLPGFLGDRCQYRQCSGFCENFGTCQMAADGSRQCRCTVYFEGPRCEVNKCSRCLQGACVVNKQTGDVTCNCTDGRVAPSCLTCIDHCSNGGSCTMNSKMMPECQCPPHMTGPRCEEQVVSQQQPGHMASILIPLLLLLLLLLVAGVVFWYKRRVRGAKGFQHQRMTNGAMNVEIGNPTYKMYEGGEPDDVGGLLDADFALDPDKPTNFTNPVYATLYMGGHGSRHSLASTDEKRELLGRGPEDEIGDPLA

von Willebrand factor (vWf) (a stretch of the chain, no sequence given)
internalized and degraded 125I-vWf from its complex with fVIII, MEF and PEA 13 cells: < 5

From patent publication US20040248785A1
